Measured values: the supplement of paper PMC4967469
A lower IC50 marks a more sensitive line; where the fit passes the top or lowest dose, that dose stands as a limit. AUC is the area under the same curve over the 256-fold range up to the top dose, as a fraction; values near 1 show little effect. For some of these results: The top dose, if marked as inferred, is not printed in the source and was worked back from the curve model. For some of these results: Where an entry number is given, a second screen of the drug exists; the two often differ.

Columns and labels:
Assay in all cases: Viability of human cancer cell lines after 72 h of drug (GDSC screen)
[1] = compound: COc1nc(C)cnc1NS(=O)(=O)c1cccnc1-c1ccc(-c2nnco2)cc1 [Zibotentan]; details: top dose 20 µM; top dose inferred
Description: (§1)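 Human cancer cell lines in 384-well plates, medium with 10% serum, drug for 72 h over a 256-fold dose range (nine 2-fold or five 4-fold steps up to the top dose). Adherent lines were fixed and stained with the nucleic acid dye Syto60, suspension lines read with resazurin; signal relative to control wells, capped at 0 and 100%. One two-parameter sigmoid per drug and line, fitted in a mixed model over all curves with the slope shared within a line.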

[2] = compound: Nc1ccn([C@@H]2O[C@H](CO)[C@@H](O)[C@@H]2O)c(=O)n1 [Cytarabine]; details: top dose 2 µM
Description: as §1

[3] = compound: O=c1cc(-c2cccc3c2Sc2ccccc2S3)oc(N2CCOCC2)c1 [KU-55933]; details: top dose 10 µM
Description: as §1

[4] = compound: COc1cc2ncnc(-n3nc(-c4ccccn4)nc3N)c2cc1OC [CP466722]; details: top dose 16 µM; top dose inferred
Description: as §1

[5] = compound: CCn1c(-c2nonc2N)nc2cnc(Oc3cccc(NC(=O)c4ccc(OCCN5CCOCC5)cc4)c3)cc21 [GSK269962A]; details: top dose 5 µM; screen: GDSC drug entry 1192; top dose inferred
Description: as §1

[6] = compound: C[C@]1(c2nc3c(C(N)=O)cccc3[nH]2)CCCN1 [ABT-888]; details: top dose 5 µM; top dose inferred
Description: as §1

[7] = compound: C/C=C(/C)C(=O)O[C@H]1C(C)=C2[C@H]([C@@H]1OC(=O)CCCCCCC)[C@@](C)(OC(C)=O)C[C@H](OC(=O)CCC)[C@@]1(O)[C@H]2OC(=O)[C@@]1(C)O [Thapsigargin]; details: top dose 0.512 µM; top dose inferred
Description: as §1

[8] = compound: Cc1ccc(F)c(NC(=O)Nc2ccc(-c3cccc4[nH]nc(N)c34)cc2)c1 [ABT-869]; details: top dose 1.024 µM; top dose inferred
Description: as §1

[9] = compound: COc1cc(O)c2c(c1)/C=C/C[C@H](O)[C@H](O)C(=O)/C=C\C[C@H](C)OC2=O [(5Z)-7-Oxozeaenol]; details: top dose 10 µM; top dose inferred
Description: as §1

[10] = compound: COc1cc(N2CCC(O)CC2)ccc1Nc1cc(Nc2ccccc2S(=O)(=O)C(C)C)c2cc[nH]c2n1 [MPS-1-IN-1]; details: top dose 20 µM; top dose inferred
Description: as §1

[11] = compound: C=CC(=O)Nc1cc(-n2c(=O)ccc3cnc4ccc(-c5cn[nH]c5)cc4c32)ccc1C [QL-X-138]; details: top dose 10.24 µM; top dose inferred
Description: as §1

[12] = compound: Cc1cnc(-c2cnc(NCCNc3ccc(C#N)cn3)nc2-c2ccc(Cl)cc2Cl)[nH]1 [CHIR-99021]
Description: as §1

[13] = top dose 2.56 µM, screen: GDSC drug entry 154
[14] = top dose 10 µM, screen: GDSC drug entry 1241, top dose inferred

Cell Line | AUC [1] | IC50 [1] [µM] | AUC [2] | IC50 [2] [µM] | AUC [3] | IC50 [3] [µM] | AUC [4] | IC50 [4] [µM] | AUC [5] | IC50 [5] [µM] | AUC [6] | IC50 [6] [µM] | AUC [7] | IC50 [7] [µM] | AUC [8] | IC50 [8] [µM] | AUC [9] | IC50 [9] [µM] | AUC [10] | IC50 [10] [µM] | AUC [11] | IC50 [11] [µM] | AUC [12, 13] | IC50 [12, 13] [µM] | AUC [12, 14] | IC50 [12, 14] [µM]
RERF-LC-Sq1 (lung squamous cell carcinoma, adherent) | 0.976 | > 20 | 0.757 | 1.01 | 0.884 | > 10 | 0.837 | > 16 | 0.817 | 4.67 | 0.943 | > 5 | 0.514 | 0.0355 | 0.975 | > 1.02 | 0.843 | > 10 | 0.93 | > 20 | 0.8 | 7.95 | 0.977 | > 2.56 | 0.976 | > 10
RH-41 (rhabdomyosarcoma, adherent) | 0.99 | > 20 | 0.46 | 0.0992 | 0.931 | > 10 | 0.901 | 14.8 | 0.966 | > 5 | 0.987 | > 5 | 0.459 | 0.0252 | 0.991 | > 1.02 | 0.695 | 1.98 | 0.962 | > 20 | 0.652 | 1.56 | 0.992 | > 2.56 | 0.901 | 9.23
RKN (ovary, adherent) | 0.983 | > 20 | 0.751 | 0.69 | 0.93 | > 10 | 0.818 | 9.72 | 0.833 | 3.5 | 0.981 | > 5 | 0.896 | > 0.512 | 0.97 | > 1.02 | 0.46 | 0.482 | 0.972 | > 20 | 0.667 | 1.92 | 0.985 | > 2.56 | 0.937 | > 10
RO82-W-1 (thyroid, adherent) | 0.982 | > 20 | 0.904 | > 2 | 0.967 | > 10 | 0.973 | > 16 | 0.866 | > 5 | 0.976 | > 5 | 0.761 | 0.231 | 0.982 | > 1.02 | 0.668 | 2.1 | 0.979 | > 20 | 0.955 | > 10.2 | 0.94 | > 2.56 | 0.9 | > 10
RPMI-2650 (head and neck, adherent) | 0.985 | > 20 | 0.632 | 0.298 | 0.965 | > 10 | 0.862 | 15.5 | 0.947 | > 5 | 0.983 | > 5 | 0.216 | 0.00431 | 0.984 | > 1.02 | 0.638 | 1.56 | 0.943 | > 20 | 0.721 | 2.88 | 0.972 | > 2.56 | 0.982 | > 10
RT4 (bladder, adherent) | 0.986 | > 20 | 0.908 | > 2 | 0.987 | > 10 | 0.658 | 2.82 | 0.981 | > 5 | 0.985 | > 5 | 0.245 | 0.00563 | 0.978 | > 1.02 | 0.746 | 3.3 | 0.916 | > 20 | 0.678 | 2.07 | 0.967 | > 2.56 | 0.898 | > 10
RVH-421 (melanoma, adherent) | 0.976 | > 20 | 0.88 | > 2 | 0.926 | > 10 | 0.85 | > 16 | 0.861 | > 5 | 0.98 | > 5 | 0.348 | 0.0103 | 0.941 | > 1.02 | 0.451 | 0.437 | 0.893 | > 20 | 0.972 | > 10.2 | 0.914 | > 2.56 | 0.87 | > 10
SAS (head and neck, adherent) | 0.983 | > 20 | 0.493 | 0.12 | 0.975 | > 10 | 0.779 | 7.34 | 0.956 | > 5 | 0.945 | > 5 | 0.574 | 0.0521 | 0.977 | > 1.02 | 0.433 | 0.401 | 0.843 | 16.6 | 0.645 | 1.7 | 0.984 | > 2.56 | 0.982 | > 10
SBC-3 (small cell lung carcinoma, adherent) | 0.989 | > 20 | 0.416 | 0.0755 | 0.942 | > 10 | 0.603 | 1.87 | 0.927 | > 5 | 0.989 | > 5 | 0.281 | 0.00819 | 0.969 | > 1.02 | 0.441 | 0.438 | 0.742 | 5.68 | 0.343 | 0.246 | 0.952 | > 2.56 | 0.979 | > 10
SBC-5 (small cell lung carcinoma, adherent) | 0.993 | > 20 | 0.971 | > 2 | 0.987 | > 10 | 0.955 | > 16 | 0.906 | 4.58 | 0.992 | > 5 | 0.185 | 0.00471 | 0.992 | > 1.02 | 0.672 | 1.7 | 0.979 | > 20 | 0.95 | > 10.2 | 0.993 | > 2.56 | 0.982 | > 10
SCC-9 (head and neck, adherent) | 0.974 | > 20 | 0.824 | 1.65 | 0.903 | > 10 | 0.729 | 5.45 | 0.924 | > 5 | 0.981 | > 5 | 0.768 | 0.245 | 0.981 | > 1.02 | 0.474 | 0.519 | 0.836 | 18.9 | 0.563 | 0.996 | 0.839 | 2.5 | 0.979 | > 10
SCC-25 (head and neck, adherent) | 0.975 | > 20 | 0.849 | 1.82 | 0.98 | > 10 | 0.803 | 9.18 | 0.949 | > 5 | 0.983 | > 5 | 0.335 | 0.0104 | 0.981 | > 1.02 | 0.679 | 2.12 | 0.846 | 17.6 | 0.688 | 2.32 | 0.973 | > 2.56 | 0.982 | > 10
SJRH30 (rhabdomyosarcoma, adherent) | 0.986 | > 20 | 0.375 | 0.0557 | 0.975 | > 10 | 0.829 | 10.4 | 0.872 | > 5 | 0.986 | > 5 | 0.278 | 0.00731 | 0.98 | > 1.02 | 0.788 | 4.56 | 0.875 | > 20 | 0.505 | 0.66 | 0.985 | > 2.56 | 0.985 | > 10
SK-MEL-3 (melanoma, adherent) | 0.982 | > 20 | 0.906 | > 2 | 0.979 | > 10 | 0.985 | > 16 | 0.983 | > 5 | 0.98 | > 5 | 0.294 | 0.0076 | 0.984 | > 1.02 | 0.695 | 2.43 | 0.798 | 11.3 | 0.901 | > 10.2 | 0.984 | > 2.56 | 0.982 | > 10
SK-MEL-30 (melanoma, adherent) | 0.983 | > 20 | 0.883 | > 2 | 0.949 | > 10 | 0.876 | > 16 | 0.984 | > 5 | 0.985 | > 5 | 0.276 | 0.0071 | 0.983 | > 1.02 | 0.352 | 0.238 | 0.846 | 15.7 | 0.703 | 2.47 | 0.985 | > 2.56 | 0.983 | > 10
SKG-IIIa (cervix, adherent) | 0.983 | > 20 | 0.717 | 0.643 | 0.944 | > 10 | 0.981 | > 16 | 0.919 | > 5 | 0.983 | > 5 | 0.824 | 0.454 | 0.977 | > 1.02 | 0.839 | > 10 | 0.983 | > 20 | 0.98 | > 10.2 | 0.973 | > 2.56 | 0.974 | > 10
SKN (uterus, adherent) | 0.981 | > 20 | 0.762 | 0.858 | 0.862 | > 10 | 0.733 | 5.41 | 0.817 | 3.57 | 0.945 | > 5 | 0.402 | 0.0163 | 0.973 | > 1.02 | 0.587 | 1.14 | 0.98 | > 20 | 0.789 | 5.57 | 0.931 | > 2.56 | 0.843 | 9.41
SKN-3 (head and neck, adherent) | 0.978 | > 20 | 0.789 | 1.07 | 0.911 | > 10 | 0.889 | > 16 | 0.933 | > 5 | 0.953 | > 5 | 0.822 | 0.372 | 0.981 | > 1.02 | 0.581 | 1.08 | 0.96 | > 20 | 0.81 | 6.6 | 0.982 | > 2.56 | 0.937 | > 10
SNG-M (endometrium, adherent) | 0.985 | > 20 | 0.722 | 0.525 | 0.976 | > 10 | 0.705 | 3.72 | 0.711 | 1.21 | 0.918 | > 5 | 0.145 | 0.00261 | 0.986 | > 1.02 | 0.663 | 1.75 | 0.89 | > 20 | 0.558 | 0.92 | 0.934 | > 2.56 | 0.75 | 3.2
SNU-182 (liver, adherent) | 0.986 | > 20 | 0.723 | 0.555 | 0.961 | > 10 | 0.686 | 3.41 | 0.866 | 4.79 | 0.986 | > 5 | 0.177 | 0.00322 | 0.983 | > 1.02 | 0.656 | 1.74 | 0.966 | > 20 | 0.861 | 9.29 | 0.984 | > 2.56 | 0.893 | > 10
